The supplement of paper PMC4604168 (melanoma cell lines)
The list shows a part of the results. Most values come without repeats; read them as rough.

How the values were obtained:
Assay in all cases: cell count relative to DMSO control; melanoma cells; higher = more viable cells
Conditions in all cases: library dose: low library concentration; 72 h
[1] = tested on: WM115
[2] = tested on: WM1716
[3] = tested on: WM1745
[4] = tested on: WM3526
[5] = tested on: WM3619
[6] = tested on: WM451Lu
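Note: cell number obtained by counting DAPI-stained nuclei in high-throughput microscope images with image analysis software, screen run in 1,536-well plates.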

Compound	cell count [1]	cell count [2]	cell count [3]	cell count [4]	cell count [5]	cell count [6]
Nc1nc(F)nc2c1ncn2[C@@H]1O[C@H](CO)[C@@H](O)[C@@H]1O [fludarabine] + Oc1cc(-c2nc(-c3ccccc3)[nH]c2-c2ccncc2)ccc1Cl [L779450] (first compound 0.2 µM, partner dose 0.2 µM)	88.7%	113%	94.6%	14.1%	82.6%	36%
Nc1ncn([C@H]2C[C@H](O)[C@@H](CO)O2)c(=O)n1 [decitabine] + c1cc(-c2cnn3cc(-c4ccc(OCCN5CCCCC5)cc4)cnc23)ccn1 [Dorsomorphin] (first compound 0.1 µM, partner dose 0.4 µM)	86.9%	102%	99%	88.7%	109%	99.1%
Nc1ccn([C@@H]2O[C@H](CO)[C@@H](O)C2(F)F)c(=O)n1 [gemcitabine] + O=c1cc(-c2cccc3c2Sc2ccccc2S3)oc(N2CCOCC2)c1 [KU55933] (first compound 0.0004 µM, partner dose 1 µM)	102%	97.8%	78.9%	54.1%	71.5%	128%
CC(=O)c1c(C)c2cnc(Nc3ccc(N4CCNCC4)cn3)nc2n(C2CCCC2)c1=O [palbociclib] + Cc1cc(N2CCOCC2)cc2[nH]c(-c3c(NC[C@@H](O)c4cccc(Cl)c4)cc[nH]c3=O)nc12 [BMS536924] (first compound 0.04 µM, partner dose 0.2 µM)	79.6%	54%	56.9%	57.7%	62%	74.3%
CC(=O)O[C@@]12CO[C@@H]1C[C@H](O)[C@@]1(C)C(=O)[C@H](O)C3=C(C)[C@@H](OC(=O)[C@H](O)[C@@H](NC(=O)OC(C)(C)C)c4ccccc4)C[C@@](O)([C@@H](OC(=O)c4ccccc4)[C@H]21)C3(C)C [Docetaxel] + O=C(O)C(=O)Nc1sc2c(c1C(=O)O)CCNC2 [TCS401] (first compound 0.0001 µM, partner dose 1.66667 µM)	68.5%	49.6%	46.1%	49.5%	63%	59.9%
CO[C@H]1C[C@@H]2CC[C@@H](C)[C@@](O)(O2)C(=O)C(=O)N2CCCC[C@H]2C(=O)O[C@H]([C@H](C)C[C@@H]2CC[C@@H](OCCO)[C@H](OC)C2)CC(=O)[C@H](C)/C=C(\C)[C@@H](O)[C@@H](OC)C(=O)[C@H](C)C[C@H](C)/C=C/C=C/C=C/1C [everolimus] + Cn1cc(/C=C2\C(=O)Nc3cccnc32)c2ccccc21 [GW441756] (first compound 0.02 µM, partner dose 0.4 µM)	73.4%	66.3%	80.5%	68.4%	79.6%	70.9%
Nc1ccn([C@@H]2O[C@H](CO)[C@@H](O)C2(F)F)c(=O)n1 [gemcitabine] + Clc1ccc(Nc2nnc(Cc3ccncc3)c3ccccc23)cc1 [vatalanib] (first compound 0.0004 µM, partner dose 2 µM)	88.8%	73.4%	60.3%	85.8%	50.9%	95.1%
CC(=O)O[C@@]12CO[C@@H]1C[C@H](O)[C@@]1(C)C(=O)[C@H](O)C3=C(C)[C@@H](OC(=O)[C@H](O)[C@@H](NC(=O)OC(C)(C)C)c4ccccc4)C[C@@](O)([C@@H](OC(=O)c4ccccc4)[C@H]21)C3(C)C [Docetaxel] + CN1CCN(c2ccc3nc(-c4c(N)c5c(F)cccc5[nH]c4=O)[nH]c3c2)CC1 [Dovitinib] (first compound 0.0001 µM, partner dose 0.1 µM)	54.8%	32%	38.9%	38.6%	56.3%	48.5%
CC(=O)O[C@@]12CO[C@@H]1C[C@H](O)[C@@]1(C)C(=O)[C@H](O)C3=C(C)[C@@H](OC(=O)[C@H](O)[C@@H](NC(=O)OC(C)(C)C)c4ccccc4)C[C@@](O)([C@@H](OC(=O)c4ccccc4)[C@H]21)C3(C)C [Docetaxel] + CCc1ccc(CCOc2ccc(CC3SC(=O)NC3=O)cc2)nc1 [pioglitazone] (first compound 0.0001 µM, partner dose 2 µM)	73.1%	45.9%	47.6%	49.1%	80%	47.3%
CC(=O)c1c(C)c2cnc(Nc3ccc(N4CCNCC4)cn3)nc2n(C2CCCC2)c1=O [palbociclib] + OCCn1cc(-c2cnc3nnn(Cc4ccc5ncccc5c4)c3n2)cn1 [PF04217903] (first compound 0.04 µM, partner dose 1 µM)	75.8%	67.9%	73%	54.8%	80.2%	81%
Nc1ncn([C@H]2C[C@H](O)[C@@H](CO)O2)c(=O)n1 [decitabine] + O=S(=O)(c1ccccc1)N(CC(F)(F)F)c1ccc(C(O)(C(F)(F)F)C(F)(F)F)cc1 [T0901317] (first compound 0.1 µM, partner dose 1.4 µM)	86.1%	80.8%	83.8%	86.5%	102%	98.7%
Nc1ccn([C@@H]2O[C@H](CO)[C@@H](O)C2(F)F)c(=O)n1 [gemcitabine] + COCC[n+]1c2c(n(Cc3cnccn3)c1C)C(=O)c1ccccc1C2=O [YM155] (first compound 0.0004 µM, partner dose 0.0004 µM)	92%	84.5%	86%	79.6%	48.5%	42.8%
CC(=O)c1c(C)c2cnc(Nc3ccc(N4CCNCC4)cn3)nc2n(C2CCCC2)c1=O [palbociclib] + CCN(CC)CCCCNc1ncc2cc(-c3cc(OC)cc(OC)c3)c(NC(=O)NC(C)(C)C)nc2n1 [PD173074] (first compound 0.04 µM, partner dose 0.1 µM)	71.7%	69.5%	70.5%	66.1%	69.2%	78.3%
CO[C@H]1C[C@@H]2CC[C@@H](C)[C@@](O)(O2)C(=O)C(=O)N2CCCC[C@H]2C(=O)O[C@H]([C@H](C)C[C@@H]2CC[C@@H](OCCO)[C@H](OC)C2)CC(=O)[C@H](C)/C=C(\C)[C@@H](O)[C@@H](OC)C(=O)[C@H](C)C[C@H](C)/C=C/C=C/C=C/1C [everolimus] + COc1cc(Nc2ncc(F)c(Nc3ccc4c(n3)NC(=O)C(C)(C)O4)n2)cc(OC)c1OC [Tamatinib] (first compound 0.02 µM, partner dose 0.4 µM)	72.8%	80.7%	66.8%	72.5%	95.4%	80.3%
CO[C@H]1C[C@@H]2CC[C@@H](C)[C@@](O)(O2)C(=O)C(=O)N2CCCC[C@H]2C(=O)O[C@H]([C@H](C)C[C@@H]2CC[C@@H](OCCO)[C@H](OC)C2)CC(=O)[C@H](C)/C=C(\C)[C@@H](O)[C@@H](OC)C(=O)[C@H](C)C[C@H](C)/C=C/C=C/C=C/1C [everolimus] + CS(=O)(=O)CCNCc1ccc(-c2ccc3ncnc(Nc4ccc(OCc5cccc(F)c5)c(Cl)c4)c3c2)o1 [lapatinib] (first compound 0.02 µM, partner dose 0.8 µM)	69.9%	81.5%	85.1%	63.8%	85.4%	73.8%
CC(=O)c1c(C)c2cnc(Nc3ccc(N4CCNCC4)cn3)nc2n(C2CCCC2)c1=O [palbociclib] + O=C(Nc1ccccc1)c1cc([N+](=O)[O-])ccc1Cl [GW9662] (first compound 0.04 µM, partner dose 2 µM)	68.3%	50.2%	81.6%	63.9%	48.6%	59.7%
CO[C@H]1C[C@@H]2CC[C@@H](C)[C@@](O)(O2)C(=O)C(=O)N2CCCC[C@H]2C(=O)O[C@H]([C@H](C)C[C@@H]2CC[C@@H](OCCO)[C@H](OC)C2)CC(=O)[C@H](C)/C=C(\C)[C@@H](O)[C@@H](OC)C(=O)[C@H](C)C[C@H](C)/C=C/C=C/C=C/1C [everolimus] + OCCn1cc(-c2cnc3nnn(Cc4ccc5ncccc5c4)c3n2)cn1 [PF04217903] (first compound 0.02 µM, partner dose 1 µM)	79%	90.1%	94.7%	97.4%	64.1%	86.4%
CC(=O)c1c(C)c2cnc(Nc3ccc(N4CCNCC4)cn3)nc2n(C2CCCC2)c1=O [palbociclib] + CCc1ccc(CCOc2ccc(CC3SC(=O)NC3=O)cc2)nc1 [pioglitazone] (first compound 0.04 µM, partner dose 2 µM)	69.9%	54.7%	82.7%	68.3%	79.5%	70.4%
CO[C@H]1C[C@@H]2CC[C@@H](C)[C@@](O)(O2)C(=O)C(=O)N2CCCC[C@H]2C(=O)O[C@H]([C@H](C)C[C@@H]2CC[C@@H](OCCO)[C@H](OC)C2)CC(=O)[C@H](C)/C=C(\C)[C@@H](O)[C@@H](OC)C(=O)[C@H](C)C[C@H](C)/C=C/C=C/C=C/1C [everolimus] + COc1ccc2c(c1)CCC1C2CCC2(C)C(NCCCCCCN3C(=O)C=CC3=O)CCC12 [U73122] (first compound 0.02 µM, partner dose 0.4 µM)	85.6%	66.8%	92.7%	50%	48.6%	79.7%
CO[C@H]1C[C@@H]2CC[C@@H](C)[C@@](O)(O2)C(=O)C(=O)N2CCCC[C@H]2C(=O)O[C@H]([C@H](C)C[C@@H]2CC[C@@H](OCCO)[C@H](OC)C2)CC(=O)[C@H](C)/C=C(\C)[C@@H](O)[C@@H](OC)C(=O)[C@H](C)C[C@H](C)/C=C/C=C/C=C/1C [everolimus] + O=C(O)c1ccc2c(c1)nc(Nc1cccc(Cl)c1)c1ccncc12 [CX4945] (first compound 0.02 µM, partner dose 0.4 µM)	78%	64%	98.1%	65.2%	75.4%	72.9%
Nc1nc(F)nc2c1ncn2[C@@H]1O[C@H](CO)[C@@H](O)[C@@H]1O [fludarabine] + C[C@@H]1CCN(C(=O)CC#N)C[C@@H]1N(C)c1ncnc2[nH]ccc12 [CP690550] (first compound 0.2 µM, partner dose 1 µM)	89%	91%	100%	25.8%	97%	45.1%
CC(=O)O[C@@]12CO[C@@H]1C[C@H](O)[C@@]1(C)C(=O)[C@H](O)C3=C(C)[C@@H](OC(=O)[C@H](O)[C@@H](NC(=O)OC(C)(C)C)c4ccccc4)C[C@@](O)([C@@H](OC(=O)c4ccccc4)[C@H]21)C3(C)C [Docetaxel] + CCCCCCCCCCCC1=C(O)C(=O)C=C(O)C1=O [Embelin] (first compound 0.0001 µM, partner dose 1.2 µM)	59.5%	34.7%	45.6%	27.7%	70.3%	50.7%
CC(=O)O[C@@]12CO[C@@H]1C[C@H](O)[C@@]1(C)C(=O)[C@H](O)C3=C(C)[C@@H](OC(=O)[C@H](O)[C@@H](NC(=O)OC(C)(C)C)c4ccccc4)C[C@@](O)([C@@H](OC(=O)c4ccccc4)[C@H]21)C3(C)C [Docetaxel] + CC(C)C[C@H](NC(=O)[C@H](Cc1ccccc1)NC(=O)c1cnccn1)B(O)O [Bortezomib] (first compound 0.0001 µM, partner dose 0.001 µM)	64.3%	31.5%	48.2%	50.6%	70.7%	55.8%
